± gives the standard deviation of the averaged measurements. Some of the results follow.
System: PfAP2-G AP2 domain (GST-tagged)
Experiment: gcPBM binding intensity (ln(normalized median fluorescence intensity)); higher = stronger DNA binding
How it was run: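 GST-tagged P. falciparum DNA-binding domains, expressed in E. coli (about 25 μg on average), were applied for 1 h to an Agilent 4 × 180k array of primer-extended double-stranded 36-bp intergenic genomic probes plus negative controls. The binding buffer was 1× PBS with 1% milk, 0.2 mg/ml BSA, 0.5% salmon testes DNA and 0.03% Triton X-100. Bound protein was detected with Alexa488 anti-GST antibody and scanned at 488 nm. Binding intensity is the highest Masliner-normalised natural-log median intensity across replicate spots of either probe orientation.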

Sequence	gcPBM binding intensity (ln)
ATAAAGATTTTCCAAGCATGCCACATAGTGAGATAC [TGCATGCA_site594]	10.2 ± 0.16
ATCATAAAAGTATACACACATACATACATATGTACA [CACACA_site2641]	10.8 ± 0.45
TTATATATTTTTACCATACACACATATAATAAATAT [CACACA_site3721]	10.2 ± 0.17
GCACATATATACATACATACATACATACATATGTAT [TGCATGCA_negctrl_site95]	10.2 ± 0.16
ACTTTATATTTTGAACGTACAAAAAAAAAATTATGT [XGTACX_site5588]	11.3 ± 0.83
AACCATTAATTCTCTACACACTTTTATTTTATTTAG [CACACA_site1769]	9.98 ± 0.014
ATTATGTTAAAAAGGCGTACATGTTATAAGGTCCTA [XGTACX_site344]	11.7 ± 1.2
TATATATAAAGAGAAACATGCAAAATGTGAATATTC [TGCATGCA_site377]	9.86 ± 0.25
AAGTATGCATTATATACACACATACATTTATATATT [CACACA_site4242]	9.94 ± 0.17
TTGGTTATACAACACATGCACACGTAAATAAATATT [CACACA_site3841]	10.4 ± 0.22
TTGTTCTAATATATTGCACACGTAAAAATATAGGTA [CACACA_site8195]	10.4 ± 0.3
TCCTTATAAATATATATATAATATATATATATATAT [CACACA_negctrl_site293]	9.565 ± 0.049
TATATATATATTTATACACACATTAGTGTAGACATG [CACACA_site8964]	10.1 ± 0.16
ATATAAATAAACAACTTTGTTGGCCTTCCAAAATAT [CACACA_negctrl_site1181]	10.1 ± 0.13
TTGAAGAATAAATATGCACACATGCATATATTTTTA [CACACA_site5840]	9.69 ± 0.028
CTCAAAAAATTTCATAGTACTTTAAAATACTATAAT [XGTACX_site1939]	11 ± 0.72
AATAAAAAAAAACGCACACACAAATATATTCCATTC [CACACA_site1224]	10.21 ± 0.099
ATATAAATATTAATTACACACAAAAAAAAAAAAAAA [CACACA_site6671]	9.64 ± 0.38
AATGGAAAAGGTAGTTGTACAACATGTTAAAATGGT [XGTACX_site1312]	11.5 ± 0.67
TTTTGTTCTAATATGGGAACATAAATATTAAATATA [CACACA_negctrl_site1787]	10.2 ± 0.23
TAATATAAAATGATAAATGAATGTGATCATTTTATA [CACACA_negctrl_site1034]	9.62 ± 0.042
ACATACTCAAATAGCACACACATAAATAAAAATGTA [CACACA_site3864]	10.2 ± 0.33

Sequence	gcPBM binding intensity (ln)
TATATATATAAATGAATGCACTTTAGAAAAAAGTAC	10.8 ± 0.42
ATATATATTATAATAACACACATATATTATATTATA [CACACA_site406]	9.88 ± 0.23
ATAAAATAAAACAACACACACGAATGTATAAATATA [CACACA_site4643]	10.04 ± 0.021
AATAAAATACAAAAATGTACAAATATAATATACATA [XGTACX_site279]	10.7 ± 0.48
TAATAATATAAATATGCACACAAATTATTACCCAAA [CACACA_site8805]	10.3 ± 0.36
TAGATATATAGAATTACACACTTTTCTATAATATGA [CACACA_site6475]	9.58 ± 0.2
ATTACAAAAATATATAAACACACAAATATAATATAT [CACACA_site8962]	9.88 ± 0.12
ATATATATTTAAAACGCATGCCTTGTTATATATATA [TGCATGCA_site624]	9.655 ± 0.078
CATATATATTTTATATGTACATATATATTTTATATA [XGTACX_site8665]	11.2 ± 0.73
ATATATATAATTTGTACACACAAATATGCATATATA [CACACA_site3432]	11.3 ± 0.98
AAATAATTTATATATTGTACAAATATTAAATGCGAA [XGTACX_site3390]	10.8 ± 0.35
TTTAAAAAAATGAAATAAAAAAAAAATAAAATAAAA [XGTACX_negctrl_site316]	9.53 ± 0.18
TTTTTTTTTTTCAGTTGTACATTGGGAAAATATATA [XGTACX_site4416]	11 ± 0.61
AGTCTGAATAAAATTACACACATATACCTATAAATA [CACACA_site6929]	9.975 ± 0.035
AGATATTTTTCTTAAGTACACACTAAATAGAAACTA [CACACA_site44]	11.3 ± 0.9
TACCAAAAAAAAAAAAAAAATTAAATAAATATGAAA [TGCATGCA_negctrl_site383]	9.27 ± 0.11
ACATTTATATATAATTGTACCCTACATTCTCTTTTT [XGTACX_site189]	11.1 ± 0.57
AAAAATATATAAACACGTACACACACATATATGTAT [XGTACX_site7436]	11.6 ± 0.88
ATATATATATATTATGTGCGCATATACCATTTTAAT [GTGCAC_site9575]	10.3 ± 0.23
TTTATTTTAACTTGTTCACACATTTGAATAAATAAA [CACACA_site5064]	10.1 ± 0.26
GGGTTGATATATATTTGTACATATTATTATTTATTA [XGTACX_site7116]	11 ± 0.54
TTAATAAAACTAACACGTACACATATATAATATTAT [XGTACX_site3260]	11.5 ± 0.98
